Data on 56 variants can be found in the RNAGym collection of RNA variant scans (doi:10.7554/elife.90254).

The labels stand for the following.
B1: LINE1-mini (parent)
chain: GGCAGAGCUCAACACAGCGUGGCAAAGUGGCUGUGGCUAGACUGCC

Read counts are not given, so values of variants with three or more changes are uncertain.

The variants in the data set derive from B1. Briefly: self-cleavage, relative activity (ratio to wild type); higher = more cleavage; in vitro, sequencing; the parent is a self-cleaving ribozyme.
GGCAGAGCUCAACACAGCGGGGCAAAGUGCCUGUCGCUAGUCUGCC: the self-cleavage came to 0.02.

Consider GGCAGAGCUCAACACAGCGCGGCGAAGUGGCUGUGGCUAGACUGGC, for which the self-cleavage came to 0.8.

As for GGCAGAGCUCAACACAGCGCUGCAAAGUGCCUGUGGCUAGACUGCC, the self-cleavage was 0.32.

Consider GGCAGAGCUCAACACAGCGAGGCAAAGAGGUUGUGGCUAGACUGCC, for which the self-cleavage is 0.36.

GGCAGAGCUCAACACAGCGGGGCUAAGUGGCUGUGGCUGGACGGCC: the self-cleavage is 0.05.

Regarding GGCAGAGCUCAACACAGCGAGGCAAAGUGGCUGUGUCUAGCCUGCC, the self-cleavage was determined as 0.04.

Take GGCAGAGCUCAACACAGCGUAGCGAAGUGGCUGUGGCUAGACUCCC: the self-cleavage is 0.46.

Turning to GGCAGAGCUCAACACAGCGUAGCUAAGUGGCUGUGGCUAGACAGCC, the self-cleavage was determined as 0.06.

In the case of GGCAGAGCUCAACACAGCGGGGCAAAGUGGCUGUGGCUAGAAUUCC, the self-cleavage was 0.02.

With GGCAGAGCUCAACACAGCGCGGCAAAGUGGCUGUGGCUAGACAGCU, the self-cleavage is 0.01.

For the variant GGCAGAGCUCAACACAGCGCGGCGAAGUCGCUGUGGGUAGACUGCC, the self-cleavage was found to be 0.

Regarding GGCAGAGCUCAACACAGCGAGGCAAAGUGGCUGGGGCUAGCCUGCC, the self-cleavage stood at 0.02.

For GGCAGAGCUCAACACAGCGGGGCAAAGUGGCUGUGACUUGACUGAC, the self-cleavage turned out to be 0.01.

Consider GGCAGAGCUCAACACAGCGGUGCAAAGUGGCUGUGGAUAGAGUGCC, for which the self-cleavage is 0.02.

Consider GGCAGAGCUCAACACAGCGCGGCAAAGUCGCGGUGGCUAGACUGCC, for which the self-cleavage turned out to be 0.55.

As for GGCAGAGCUCAACACAGCGAGGCAAAGUGGCUGCGGCUAGACUUCC, the self-cleavage was determined as 0.3.

Take GGCAGAGCUCAACACAGCGGGGCCAAGUAGCUGAGGCUAGACUUCC: the self-cleavage is 0.08.

GGCAGAGCUCAACACAGCGGGGCAAAGUGGCUGUUGUUAGACUGCC: the self-cleavage was found to be 0.

Regarding GGCAGAGCUCAACACAGCGGGGCAUAGUGACGGUGGCUAUACUGCC, the self-cleavage is 0.03.

Turning to GGCAGAGCUCAACACAGCGGGGCAAAGUUGCUGUCGCUAGACUGCC, the self-cleavage worked out at 0.04.

GGCAGAGCUCAACACAGCGAGGCAAAGCGGCUGUGGCUAGACUCCC: the self-cleavage was determined as 0.25.

Consider GGCAGAGCUCAACACAGCGGGGUAGAGUGGCUCAGGCUAGACUGCC, for which the self-cleavage stood at 0.03.

For the variant GGCAGAGCUCAACACAGCGCGGCAAAGUGGGUGUGUCUAGACUGCC, the self-cleavage turned out to be 0.02.

As for GGCAGAGCUCAACACAGCGGGGCAAAGUUGCUGUGGCUACAUUGCC, the self-cleavage was found to be 0.07.

On to GGCAGAGCUCAACACAGCGGGGCAAAGUAGCUGUGGCUAGACCGCC, for which the self-cleavage was 0.02.

Regarding GGCAGAGCUCAACACAGCGCGGCAACGUGACUGUGGCUAGACUGCC, the self-cleavage worked out at 0.18.

On to GGCAGAGCUCAACACAGCGCGGCAAUGUGGCUGUGACUAGACUGCC, for which the self-cleavage turned out to be 0.02.

As for GGCAGAGCUCAACACAGCGGGGCAAAGUGGCAGUGACUAGACUGCC, the self-cleavage stood at 0.02.

For the variant GGCAGAGCUCAACACAGCGGGGCAAAGUGGCUGGGUCUAGACUGCC, the self-cleavage is 0.02.

Take GGCAGAGCUCAACACAGCGGGGCAAAGUGGCCGUGGGUAGACUGCC: the self-cleavage turned out to be 0.03.

Consider GGCAGAGCUCAACACAGCGCGGCAAAGUGGCUGUCGCUAUACUGCC, for which the self-cleavage stood at 0.

For GGCAGAGCUCAACACAGCGGGACAAAGUGGCUGUGCCUAGACUUCC, the self-cleavage came out at 0.05.

With GGCAGAGCUCAACACAGCGGGGCAUAUUGGCUGUGGCUAGACUGCC, the self-cleavage came out at 0.24.

Regarding GGCAGAGCUCAACACAGCGGGGCAAAGUGGCUGUGCGUAGUCUGCC, the self-cleavage was determined as 0.09.

Take GGCAGAGCUCAACACAGCGGAGCAAAGUGGCUCUGGCUAGACUGCC: the self-cleavage was 0.04.

GGCAGAGCUCAACACAGCGGGGCAAAGUGGCUGAGUCUAGACUGCC: the self-cleavage was 0.02.

As for GGCAGAGCUCAACACAGCGCGGGAAGGUGGCUGUUGCUAGACUGCC, the self-cleavage is 0.18.

With GGCAGAGCUCAACACAGCGGGGCAAAGUGGCUGUGUCUACACUGCC, the self-cleavage stood at 0.13.

Turning to GGCAGAGCUCAACACAGCGGGGCAAAGUGGCGGUGACUAGACUCGC, the self-cleavage amounted to 0.03.

On to GGCAGAGCUCAACACAGCGCGGCAACUUGACUGUGGCCAGACUGCC, for which the self-cleavage came out at 0.42.

In the case of GGCAGAGCUCAACACAGCGGGCCAAAGUGGCUGUGGAUAGACUGCC, the self-cleavage was 0.

As to GGCAGAGCUCAACACAGCGGGGCAAAGUGGCUUUGGCUAGACUUCC, the self-cleavage was 0.03.

Take GGCAGAGCUCAACACAGCGGGACAAAGGGGCUGUGGCUAGACUUCC: the self-cleavage amounted to 0.1.

With GGCAGAGCUCAACACAGCGCGGGAAAUUGGCUGUGGCUAGACUGCC, the self-cleavage worked out at 0.15.

Regarding GGCAGAGCUCAACACAGCGCGGCAAAGUGGCUGUGGCAAGACUGCU, the self-cleavage turned out to be 0.21.

Consider GGCAGAGCUCAACACAGCGGGGCAAAGUGGCAGUGGCUAGAGUGCC, for which the self-cleavage was 0.04.

For GGCAGAGCUCAACACAGCGCGGCAAAGUGGCUGUGUCUGGACUGCC, the self-cleavage was determined as 0.01.

On to GGCAGAGCUCAACACAGCGCGGCAACGUGGCUGUGGCUAGAGUGCC, for which the self-cleavage was determined as 0.08.

On to GGCAGAGCUCAACACAGCGCGGCAAAGUGGAUGUGGCUGGACUGCC, for which the self-cleavage came to 0.03.

As for GGCAGAGCUCAACACAGCGGGGCAAAGUGGCUGUGGCUAUACAGCC, the self-cleavage was 0.01.

On to GGCAGAGCUCAACACAGCGCGGCACAGUGGCUGUAGCUAGACUGCC, for which the self-cleavage was 0.04.

For GGCAGAGCUCAACACAGCGGAGCAAAGUGGCUGUGGCUAAACUGCC, the self-cleavage was found to be 0.01.

As for GGCAGAGCUCAACACAGCGAGGCAAAGUUGCUCUGGCUAGACUGCC, the self-cleavage came to 0.03.

Consider GGCAGAGCUCAACACAGCGGGGCAAAGUGUCUGUUGCUAUACUGCC, for which the self-cleavage amounted to 0.

Take GGCAGAGCUCAACACAGCGGGGCAAAGUGGCUGUAGCUAGCCUGCC: the self-cleavage came out at 0.01.

For the variant GGCAGAGCUCAACACAGCGCGGCAAAGUGGCUGUGGCUAUACUUCA, the self-cleavage amounted to 0.01.
